In patent US20250281631A1, “ANTIBODY-DRUG CONJUGATES AND PREPARATION METHODS AND USE THEREOF” (SICHUAN KELUN-BIOTECH BIOPHARMACEUTICAL CO., LTD, priority 2022, published 2025):

Columns and labels:
MDA-MB-453 cells = assay: Cell affinity of anti-human HER3 antibody and its drug conjugates by flow cytometry (second test, Table 37); type: binding
Protocol: 8. Detection of Cell Affinity of Anti-Human HER3 Antibody and its Drug Conjugates
The affinity of anti-human HER3 ADC to MDA-MB-453 cells was detected by flow cytometry (Beckman, model Cytoflex).
Adherent MDA-MB-453 cells were digested with Tryple (manufacturer: Gibco) solution, counted, and an appropriate amount of the cells were taken, washed twice with 1×PBS, resuspended in 1% BSA solution, and then transferred to a 96-well sharp-bottom plate, 50 μl per well; candidate antibodies and drug conjugates thereof were diluted with 1% BSA by 3-fold serial dilution starting from 15 μg/mL, and then 50 μl of the diluted antibody or antibody-drug conjugate was added to the sharp-bottom plate containing the cells, and incubation was carried out at 4° C. for 40 minutes; the cells were washed twice with PBS, then added with 50 μl of diluted secondary antibody to each well, mixed, and incubated at 4° C. for 30 minutes; the cells were washed with PBS twice, then resuspended in 200 μl of PBS and detected by flow cytometry. Data processing: the average fluorescence signal values were exported, and then input into GraphPad Prism 6 software to calculate EC50.

HCC1569 cells = assay: Endocytosis effects of anti-human HER3 antibody and ADC (pHrodo, flow cytometry); type: cell-based; details: 24 hours
Protocol: 9. Detection of Endocytosis Effects of Anti-Human HER3 Antibody Conjugates
Adherent cells were digested with Trypsin-EDTA (0.25% Shanghai Basal Media Technologies) solution, counted, and adjusted the cell concentration to 1×10^5/ml with complete culture medium, then 100 μl of the cell suspension was added to the 96-well plate (the cell number is 1× 10^4/well), the 96-well plate was incubated in constant temperature CO2 incubator at 37° C. for 24 hours. Then took out the 96-well plate, discarded the medium, and added 50 μl of fresh complete culture medium to each well, the bi-specific antibody and control antibody were diluted with complete culture medium by serial dilution, the final concentrations were 0.55, 1.64, 4.94, 14.81, 44.44, 133.33, 400, 1200 ng/ml, 8 concentrations in total; PHrodo solution (Thermo) was diluted with complete culture medium to 12 μg/ml (the final concentration of PHrodo is 3 μg/ml); the serial diluted antibody candidates and diluted PHrodo solution were 1:1 mixed (30 μl 30 μl), incubated at room temperature in dark for 30 minutes; add 50 μl antibody candidate and PHrodo solution mixture to 96-well bplace, cultured at 37° C., 5% CO2 for 24 hours; took out the 96-well plate, discarded medium, washed once with sterile PBS, then cells were digested with 100 μl/well Trypsin-EDTA (0.25%), neutralized with 100 μl complete culture medium; then cells were separated by piping up and down and detected by flow cytometry. Data processing: the average fluorescence signal values were exported, and then input into GraphPad Prism 6 software to calculate EC50.

B1: 22B6-A-07-A-1: ADC of antibody 22B6D2-hIgG1 conjugated to drug-linker A-07-A, DAR 7.99 (conjugate)
heavy: EVHLVESGGGVVQPGRSLRLSCATSGFTFRSYGMHWVRQAPGKGLEWVAVIWYDGSNKYYADSVKGRFTISRDISKNTLYLQMNSLTAEDTAVYYCARYYYDSNGYYDAFDIWGQGTMVTVSSASTKGPSVFPLAPSSKSTSGGTAALGCLVKDYFPEPVTVSWNSGALTSGVHTFPAVLQSSGLYSLSSVVTVPSSSLGTQTYICNVNHKPSNTKVDKRV[in this place human IgG1 Fc]
light: DIQLTQSPSFLSASVGDRVTITCRASQGISNYLAWYQQKPGKAPKLLIFAASTLQSGVPSRFSGSGSGAEFTLTISSLEPEDFATYYCQQLNSYPITFGQGTRLEIKRTVAAPSVFIFPPSDEQLKSGTASVVCLLNNFYPREAKVQWKVDNALQSGNSQESVTEQDSKDSTYSLSSTLTLSKADYEKHKVYACEVTHQGLSSPVTKSFNRGEC
MDA-MB-453 cells
  EC50 cell affinity: 0.1469 µg/mL
HCC1569 cells
  EC50 endocytosis effects: 0.03691 µg/mL
